Results as given in article PMC10193017.
Results are given in words; binding and its absence hold for the method and conditions named. In cells and extracts the contact can be indirect. Some binding calls cover weakened binding; strength is not graded here. For some of these results: Sequences can lack the tags named with a protein.

Experiments:
[1] = molecular target: T1, NADPH oxidase 4 (NOX4), endogenous in cultured macrophages (not stated (endogenous in a macrophage cell line; mouse alveolar macrophage and human THP-1 lines were cultured)) (UniProt Q9NPH5); experiment: co-IP; NOX4 immunoprecipitation from isolated mitochondria of macrophages (digitonin, then sonication), immunoblot for TIM23; with or without asbestos exposure
T1 sequence: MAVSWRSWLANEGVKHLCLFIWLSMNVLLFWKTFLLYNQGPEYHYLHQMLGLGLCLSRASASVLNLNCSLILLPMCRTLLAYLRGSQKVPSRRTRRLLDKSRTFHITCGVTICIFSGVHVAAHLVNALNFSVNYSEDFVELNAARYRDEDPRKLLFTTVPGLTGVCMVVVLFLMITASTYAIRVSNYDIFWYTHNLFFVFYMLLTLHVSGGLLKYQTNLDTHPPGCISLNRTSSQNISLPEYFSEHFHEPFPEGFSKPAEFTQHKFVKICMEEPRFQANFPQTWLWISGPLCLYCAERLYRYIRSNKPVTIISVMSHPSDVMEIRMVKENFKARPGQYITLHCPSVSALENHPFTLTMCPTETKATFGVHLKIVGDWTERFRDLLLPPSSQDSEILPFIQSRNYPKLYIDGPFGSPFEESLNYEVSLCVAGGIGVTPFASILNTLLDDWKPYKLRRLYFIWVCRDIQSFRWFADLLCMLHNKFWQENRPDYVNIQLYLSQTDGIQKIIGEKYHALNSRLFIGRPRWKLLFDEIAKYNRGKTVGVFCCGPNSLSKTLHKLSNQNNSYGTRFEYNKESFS

[2] = molecular target: T1, NADPH oxidase 4 (NOX4), endogenous in cultured macrophages (not stated (endogenous in a macrophage cell line; mouse alveolar macrophage and human THP-1 lines were cultured)); experiment: co-IP; NOX4 immunoprecipitation from macrophage cell lysates, immunoblot for TIM23; cells with or without asbestos exposure
[3] = molecular target: T2, NOX4, endogenous in lung macrophages of Nox4 fl/fl mice (mouse (endogenous in lung macrophages of mice)) (UniProt Q9JHI8); experiment: co-IP; NOX4 immunoprecipitation from lung macrophages of Nox4 fl/fl mice exposed to MMVF or asbestos for 21 days, immunoblot for TIM23
T2 sequence: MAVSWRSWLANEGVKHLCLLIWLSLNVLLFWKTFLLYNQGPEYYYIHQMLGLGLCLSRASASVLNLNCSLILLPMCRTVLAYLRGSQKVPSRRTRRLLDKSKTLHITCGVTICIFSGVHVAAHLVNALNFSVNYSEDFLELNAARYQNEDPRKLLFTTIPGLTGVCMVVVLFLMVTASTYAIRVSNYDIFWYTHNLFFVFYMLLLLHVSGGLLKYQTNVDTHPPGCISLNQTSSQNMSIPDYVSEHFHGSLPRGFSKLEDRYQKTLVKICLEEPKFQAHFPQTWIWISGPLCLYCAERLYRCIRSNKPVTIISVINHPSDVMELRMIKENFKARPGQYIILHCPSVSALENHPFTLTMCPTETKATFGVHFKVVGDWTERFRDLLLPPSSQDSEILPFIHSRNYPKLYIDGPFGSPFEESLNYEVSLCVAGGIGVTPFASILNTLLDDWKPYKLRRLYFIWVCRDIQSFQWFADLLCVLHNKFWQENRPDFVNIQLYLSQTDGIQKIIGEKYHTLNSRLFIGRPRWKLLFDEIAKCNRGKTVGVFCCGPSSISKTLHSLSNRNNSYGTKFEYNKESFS

[4] = molecular target: T2, NOX4, endogenous in lung macrophages of Nox4 fl/fl mice (mouse (endogenous in lung macrophages of mice)); experiment: co-IP; NOX4 immunoprecipitation from isolated mitochondria of lung macrophages of Nox4 fl/fl mice exposed to MMVF or asbestos (digitonin, then sonication), immunoblot for TIM23
[5] = molecular target: T3, NOX4, endogenous in human BAL lung macrophages (human (endogenous in BAL macrophages)) (UniProt Q9NPH5); experiment: co-IP; NOX4 immunoprecipitation from BAL lung macrophages of normal and asbestosis subjects, immunoblot for TIM23
T3 sequence: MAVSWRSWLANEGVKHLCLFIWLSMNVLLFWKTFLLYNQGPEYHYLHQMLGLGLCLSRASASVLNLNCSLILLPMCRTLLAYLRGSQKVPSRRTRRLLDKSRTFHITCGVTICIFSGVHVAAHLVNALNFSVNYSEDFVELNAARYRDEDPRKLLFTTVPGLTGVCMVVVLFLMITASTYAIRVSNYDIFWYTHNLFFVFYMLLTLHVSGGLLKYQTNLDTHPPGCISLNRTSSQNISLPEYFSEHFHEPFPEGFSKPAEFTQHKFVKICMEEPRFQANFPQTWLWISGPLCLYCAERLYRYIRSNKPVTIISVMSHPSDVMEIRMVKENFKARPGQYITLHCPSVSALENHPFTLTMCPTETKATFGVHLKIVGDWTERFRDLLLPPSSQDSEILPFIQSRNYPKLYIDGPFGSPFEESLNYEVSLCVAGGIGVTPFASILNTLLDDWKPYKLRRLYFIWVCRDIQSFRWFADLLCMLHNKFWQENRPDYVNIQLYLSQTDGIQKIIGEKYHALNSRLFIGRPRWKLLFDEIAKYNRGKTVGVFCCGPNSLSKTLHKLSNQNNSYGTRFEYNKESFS

[6] = molecular target: T4, GST-NOX4 143aa mutant (human) (UniProt Q9NPH5); experiment: co-IP; immunoprecipitation of transfected C-terminally GST-tagged human NOX4 full-length and truncated constructs, immunoblot for TIM23; cell type not stated
T4 sequence: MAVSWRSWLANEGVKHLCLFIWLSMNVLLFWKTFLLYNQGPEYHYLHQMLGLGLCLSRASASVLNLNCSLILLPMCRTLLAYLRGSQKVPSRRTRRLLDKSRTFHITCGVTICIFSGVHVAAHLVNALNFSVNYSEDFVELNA

[7] = molecular target: T5, GST-NOX4 447aa mutant (human) (UniProt Q9NPH5); experiment: as above
T5 sequence: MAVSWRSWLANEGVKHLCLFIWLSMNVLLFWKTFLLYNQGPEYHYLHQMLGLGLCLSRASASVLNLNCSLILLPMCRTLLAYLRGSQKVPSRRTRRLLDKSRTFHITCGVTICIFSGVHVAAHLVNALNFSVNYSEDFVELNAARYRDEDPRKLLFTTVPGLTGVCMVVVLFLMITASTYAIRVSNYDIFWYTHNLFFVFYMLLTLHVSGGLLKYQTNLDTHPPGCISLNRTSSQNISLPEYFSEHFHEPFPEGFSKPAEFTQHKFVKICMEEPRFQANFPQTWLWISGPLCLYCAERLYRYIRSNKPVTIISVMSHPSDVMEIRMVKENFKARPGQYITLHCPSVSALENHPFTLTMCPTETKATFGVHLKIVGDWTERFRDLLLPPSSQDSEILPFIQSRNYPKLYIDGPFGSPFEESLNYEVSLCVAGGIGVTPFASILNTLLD

[8] = molecular target: T6, full-length GST-NOX4 (human) (UniProt Q9NPH5); experiment: as above
T6 sequence: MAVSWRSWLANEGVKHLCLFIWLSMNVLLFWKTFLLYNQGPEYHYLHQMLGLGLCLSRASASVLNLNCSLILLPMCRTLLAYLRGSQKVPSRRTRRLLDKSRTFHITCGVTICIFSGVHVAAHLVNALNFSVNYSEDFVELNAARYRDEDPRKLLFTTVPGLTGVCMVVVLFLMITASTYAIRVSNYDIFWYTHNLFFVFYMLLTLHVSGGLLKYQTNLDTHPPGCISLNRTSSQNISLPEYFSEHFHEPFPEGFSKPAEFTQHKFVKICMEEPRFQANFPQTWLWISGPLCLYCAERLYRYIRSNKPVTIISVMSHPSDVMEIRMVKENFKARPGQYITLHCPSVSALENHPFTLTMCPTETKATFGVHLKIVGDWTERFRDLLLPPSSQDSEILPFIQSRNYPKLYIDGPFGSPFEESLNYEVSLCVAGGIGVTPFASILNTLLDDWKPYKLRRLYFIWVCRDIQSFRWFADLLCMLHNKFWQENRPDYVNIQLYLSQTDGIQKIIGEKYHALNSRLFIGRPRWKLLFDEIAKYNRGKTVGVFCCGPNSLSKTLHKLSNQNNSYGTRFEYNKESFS

[9] = molecular target: T7, GST-NOX4 124aa mutant (human) (UniProt Q9NPH5); experiment: as above
T7 sequence: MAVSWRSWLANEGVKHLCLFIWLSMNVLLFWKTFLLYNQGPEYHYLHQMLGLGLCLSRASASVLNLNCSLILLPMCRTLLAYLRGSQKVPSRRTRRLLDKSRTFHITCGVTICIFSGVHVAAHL

[10] = molecular target: T8, GST-NOX4 213aa mutant (human) (UniProt Q9NPH5); experiment: as above
T8 sequence: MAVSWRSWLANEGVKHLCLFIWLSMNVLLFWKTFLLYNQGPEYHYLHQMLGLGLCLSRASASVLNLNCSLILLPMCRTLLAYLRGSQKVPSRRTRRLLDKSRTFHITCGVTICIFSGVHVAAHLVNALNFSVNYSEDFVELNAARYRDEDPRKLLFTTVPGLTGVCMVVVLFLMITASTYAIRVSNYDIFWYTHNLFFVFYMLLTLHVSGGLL

B1: TIM23, endogenous in cultured macrophages (protein, UniProt O14925 1-209)
chain: MEGGGGSGNKTTGGLAGFFGAGGAGYSHADLAGVPLTGMNPLSPYLNVDPRYLVQDTDEFILPTGANKTRGRFELAFFTIGGCCMTGAAFGAMNGLRLGLKETQNMAWSKPRNVQILNMVTRQGALWANTLGSLALLYSAFGVIIEKTRGAEDDLNTVAAGTMTGMLYKCTGGLRGIARGGLTGLTLTSLYALYNNWEHMKGSLLQQSL
binding [1]: binds | binding [2]: binds

B2: TIM23, endogenous in lung macrophages of Nox4 fl/fl mice (protein, UniProt Q9WTQ8 1-209)
chain: MEGGGRSSNKSTSGLAGFFGAGGAGYSNADLAGVPLTGMNPLSPYLNVDPRYLVQDTDEFILPTGANKTRGRFELAFFTIGGCCMTGAAFGAMNGLRLGLKETQSMAWSKPRNVQILNMVTRQGALWANTLGSLALLYSAFGVIIEKTRGAEDDLNTVAAGTMTGMLYKCTGGLRGIARGGLAGLTLTSLYALYNNWVHMKGSLLQQSL
binding [3]: binds | binding [4]: binds

B3: TIM23, endogenous in human BAL lung macrophages (protein, UniProt O14925 1-209)
chain: MEGGGGSGNKTTGGLAGFFGAGGAGYSHADLAGVPLTGMNPLSPYLNVDPRYLVQDTDEFILPTGANKTRGRFELAFFTIGGCCMTGAAFGAMNGLRLGLKETQNMAWSKPRNVQILNMVTRQGALWANTLGSLALLYSAFGVIIEKTRGAEDDLNTVAAGTMTGMLYKCTGGLRGIARGGLTGLTLTSLYALYNNWEHMKGSLLQQSL
binding [5]: binds

B4: TIM23 in cells transfected with GST-NOX4 constructs (protein, UniProt O14925 1-209)
chain: MEGGGGSGNKTTGGLAGFFGAGGAGYSHADLAGVPLTGMNPLSPYLNVDPRYLVQDTDEFILPTGANKTRGRFELAFFTIGGCCMTGAAFGAMNGLRLGLKETQNMAWSKPRNVQILNMVTRQGALWANTLGSLALLYSAFGVIIEKTRGAEDDLNTVAAGTMTGMLYKCTGGLRGIARGGLTGLTLTSLYALYNNWEHMKGSLLQQSL
binding [6]: no binding | binding [7]: binds | binding [8]: binds | binding [9]: no binding | binding [10]: no binding
